Our source for the IC50 values is patent US20150110781A1.

By IC50 is commonly meant the concentration that gives 50% inhibition. Low readings indicate greater potency, high ones weaker potency.

The experiment deals with Inactivated Rabies Virus Vaccine (Rabipur®, Chiron Behring GmbH & Co.) (rabies virus).

B1: Hu2G11-2 (antibody)
heavy: EVQLVESGGGLVQPGGSLILSCAASGFTFSGFAMSWVRQAPGKGLEWVATISSGGTYTYSPDSVMGRFTISRDNAKNSLYLQMNSLRAEDTAVYYCARRLRRNYYSMDYWGQGTMVTVSS[no letters for human IgG1 constant region]
light: DIVMTQSPLSLPVTPGEPASISCKSTKSLLNSDGFTYLDWYLQKPGQSPQLLIYLVSNRFSGVPDRFSGSGSGTDFTLKISRVEAEDVGVYYCFQSNYLPFTFGGGTKVEIKRTVAAPSVFIFPPSDEQLKSGTASVVCLLNNFYPREAKVQWKVDNALQSGNSQESVTEQDSKDSTYSLSSTLTLSKADYEKHKVYACEVTHQGLSSPVTKSFNRGEC
Regarding B1, the IC50 was 0.23 µg/mL.
